Source: the RNAGym collection of RNA variant scans (doi:10.1073/pnas.2313332121)
This sample is rich in variants without activity.

B1: TPR 5TU (parent)
chain: GGAUCUUCUCGAUCUAACAAAAAAGACAAAUCUGCCACAAAGCUUGAGAGCAUCUUCGGAUGCAGAGGCGGCAGCCUUCGGUGGCGCGAUAGCGCCAACGUUCUCAACUAUGACACGCAAAACGCGUGCUCCGUUGAAUGGAGUUUAUCAUG

Variants of: B1
Test: polymerase ribozyme fitness, log enrichment relative to wild type (log ratio); higher = more active; in vitro selection for triplet polymerase activity
Procedure, shortened: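 The heterodimeric triplet polymerase ribozyme's subunits were each mutagenized into PCR-built libraries and transcribed. Every library was selected once, in triplicate, by annealing with a biotinylated primer, the partner subunit and triplets, incubating frozen at −7 °C, gel-excising extended constructs, capturing on streptavidin beads and running RT-PCR. Input and output libraries were Illumina-sequenced, with genotypes kept only at ≥10 input reads and ≥1 read per output. Fitness, from inverse-variance-weighted replicate averages, is the base-2 logarithm of genotype enrichment over wild-type enrichment.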

Row | Variant | polymerase ribozyme fitness (log ratio)
1 | U4C C10G A28C A49C G86A C99G U104G | ≤ -4.2
2 | U4C C10U U56G A60U G92U | -3.76
3 | U4C C14G A30G C38G U144C | ≤ -4.2
4 | U4C C14G A39C G81A U90G C96A G140A A142G | ≤ -4.2
5 | U4C C18U G34A A40C C85U | ≤ -4.2
6 | U4C C18U G48U A49C G68U G74A C76A G88U C116G | ≤ -4.2
7 | U4C C32U U144G A150G | ≤ -4.2
8 | U4C C35U A47C U78G G136C | ≤ -4.2
9 | U4C C54G C85A C99A A122U | ≤ -4.2
10 | U4C C57U A66C C87U | ≤ -4.2
11 | U4C C85U C93U C105A A107U A150G | ≤ -4.2
12 | U4C G11A G68A C72A G83U C93G G140A U148C | ≤ -4.2
13 | U4C G11U G42C G48A U53G C57G G81U C85U | ≤ -4.2
14 | U4C G42A A49C G50C C51U C79G A91U A121G | ≤ -4.2
15 | U4C G46U C87G | ≤ -4.2
16 | U4C G50A G83A C87A A91C G92A U146A | ≤ -4.2
17 | U4C G58C G84A G126C G133C A138U | ≤ -4.2
18 | U4C G62U A115U U144A | ≤ -4.2
19 | U4C G83C G141U U151G | ≤ -4.2
20 | U4C G86U A137U | ≤ -4.2
21 | U4C G88C U104A A107G | ≤ -4.2

Row | Variant | polymerase ribozyme fitness (log ratio)
22 | U4C U6A G11U C36U A91U C96A U104G U144A A150C | ≤ -4.2
23 | U4C U6G C35A C85U C108U G141A | ≤ -4.2
24 | U4C U7A C72G U144A | ≤ -4.2
25 | U4C U9A A20G U61G G68A A73U C93A C95G C103A U151G | ≤ -4.2
26 | U4C U9G A12U A23C A30U U45G C79U G88A A121G | ≤ -4.2
27 | U4C U15A A26U A49C A52C C85A G141A G143C | ≤ -4.2
28 | U4C U15C C35G A40U C76A C93A A115U | ≤ -4.2
29 | U4C U15G U77A G92U C99G | ≤ -4.2
30 | U4C U31G G50C C51A G58U C76A G83A | ≤ -4.2
31 | U4C U44C A47G G83A A97G A107G A110C C114G | ≤ -4.2
32 | U4C U45A U55G C69G G86U A110G U111G | ≤ -4.2
33 | U4C U53A G70C C85G C118U C123U G141A U151C | ≤ -4.2
34 | U4C U53A G92C C114A A120G | ≤ -4.2
35 | U4C U53A U55A G81C A150U | -1.4
36 | U4C U56A C79A C85U A89C A98G A115C G143A | ≤ -4.2
37 | U4C U56A U61A C85A C125G U134C G141U | ≤ -4.2
38 | U4G A12G A17G C93U G141C | -3.94
39 | U4G A16G C54U G62C G71A U101G C105U A142G U144A | ≤ -4.2
40 | U4G A19U A40C A73U C85G A91C | ≤ -4.2
41 | U4G A19U A60C A66C G71A C76A G133C | ≤ -4.2
42 | U4G A20U A24U G94C C99G G128U | ≤ -4.2

Row | Variant | polymerase ribozyme fitness (log ratio)
43 | U4G A20U G67A C103G | ≤ -4.2
44 | U4G A22U A37C C95A C96A U127G | ≤ -4.2
45 | U4G A23U A97G | ≤ -4.2
46 | U4G A23U U44G C51U C76G C96U U148C | ≤ -4.2
47 | U4G A24C A26C G81C G92C A98U C114A G141C | ≤ -4.2
48 | U4G A26U A66U G83A G88C A110C A121C G126A | ≤ -4.2
49 | U4G A28C C38G U45G C87U C116G G126A G152A | ≤ -4.2
50 | U4G A28G A91G C93U A115U G133A | ≤ -4.2
51 | U4G A28U A52C A60C U61G G70C C85G U134A U144A | ≤ -4.2
52 | U4G A28U C35U U44G G94A A120U C125U G141C | ≤ -4.2
53 | U4G A29C C75A C96U A115U U148A | -3.99
54 | U4G A29C G34A C76G | ≤ -4.2
55 | U4G A30G A39U A60G C87U U104A A106U | ≤ -4.2
56 | U4G A37C C93U A147U C149G | ≤ -4.2
57 | U4G A41C G48C A60U A97G A107U | ≤ -4.2
58 | U4G A41G G42C C43U U44A C69A G84U C95A C123U U134G | ≤ -4.2
59 | U4G A49C | ≤ -4.2
60 | U4G A60U A64G G68A C93A G140C G143A | ≤ -4.2
61 | U4G C5A C14G A41C U53A A64U C79U C93A U109A | ≤ -4.2
62 | U4G C5G U33G U101C A150C | ≤ -4.2
63 | U4G C10U U31C A40C A49U G88U A110G C116U U134A U144C | ≤ -4.2

Row | Variant | polymerase ribozyme fitness (log ratio)
64 | U4G C18G A22U C27U U55A C85U G126U U135A | ≤ -4.2
65 | U4G C32U C35U G46A C76G G84U | ≤ -4.2
66 | U4G C35U G83C G124U U146C | -2.43
67 | U4G C57U G59C C69A G84C C85A | ≤ -4.2
68 | U4G C69G G143U | ≤ -4.2
69 | U4G C75G C85A | ≤ -4.2
70 | U4G C85G C93G G94A C96A C114U | ≤ -4.2
71 | U4G C87A | ≤ -4.2
72 | U4G G11U A16C A29C C57U C87A C95U C99A C132G U139A U146C | ≤ -4.2
73 | U4G G25C C27U C75G U78C G80A G92A G100A C108U U109C | ≤ -4.2
74 | U4G G25U A30U A39U U55A U109C U130G | ≤ -4.2
75 | U4G G46U A47C A52C C85G C125G | ≤ -4.2
76 | U4G G50C A73G U102C | ≤ -4.2
77 | U4G G80C G86U | ≤ -4.2
78 | U4G U6A A47C A60G C72A G88C G124U U134A | ≤ -4.2
79 | U4G U9A C35A G48C U134G | ≤ -4.2
80 | U4G U13A C57A A106C G136A | -1.91
81 | U4G U13A G42C U55G C63U C85G U111G C114A | ≤ -4.2
82 | U4G U13G A30C U31A G50U C95U C103A C105U | ≤ -4.2
83 | U4G U13G U44G C75U G86A A91G C93A C131U | ≤ -4.2
84 | U4G U15C A41C A64G A66G U134G | ≤ -4.2
